Test results reported in patent publication US11618753B2 (priority 2018, dated 2023).

test system: MLKL phosphorylation, HT29-L23 human colorectal adenocarcinoma cells; assay: cells; settings: read-out: pMLKL HCS Cell Assay (IC50, uM)

| SMILES | IC50 [µM] |
| --- | --- |
| Cc1cc(F)c(-c2cc(C(F)(F)F)c3c(N)ncnn23)cc1C(=O)N[C@@H]1CN(C(=O)c2ccc(Cl)cc2)C[C@@H]1F [Example 827, 5-[4-amino-5-(trifluoromethyl)pyrrolo[2,1-f][1,2,4]triazin-7-yl]-N-[(3R,4S)-1-(4-chlorobenzoyl)-4-fluoropyrrolidin-3-yl]-4-fluoro-2-methylbenzamide] | 0.0099 |
| Cc1cc(F)c(-c2cc(C(F)(F)F)c3c(N)ncnn23)cc1C(=O)N[C@@H]1CN(C(=O)c2ccccn2)C[C@@H]1F [Example 828, 5-[4-amino-5-(trifluoromethyl)pyrrolo[2,1-f][1,2,4]triazin-7-yl]-4-fluoro-N-[(3R,4S)-4-fluoro-1-(pyridine-2-carbonyl)pyrrolidin-3-yl]-2-methylbenzamide] | 0.013 |
| Cc1cc(F)c(-c2cc(C(F)(F)F)c3c(N)ncnn23)cc1C(=O)N[C@@H]1CN(C(=O)c2ccncc2)C[C@@H]1F [Example 829, 5-[4-amino-5-(trifluoromethyl)pyrrolo[2,1-f][1,2,4]triazin-7-yl]-4-fluoro-N-[(3R,4S)-4-fluoro-1-(pyridine-4-carbonyl)pyrrolidin-3-yl]-2-methylbenzamide] | 0.0072 |
| Cc1cc(F)c(-c2cc(C(F)(F)F)c3c(N)ncnn23)cc1C(=O)N[C@@H]1CN(C(=O)c2cc(F)ccc2F)C[C@@H]1F [Example 830, 5-[4-amino-5-(trifluoromethyl)pyrrolo[2,1-f][1,2,4]triazin-7-yl]-N-[(3R,4S)-1-(2,5-difluorobenzoyl)-4-fluoropyrrolidin-3-yl]-4-fluoro-2-methylbenzamide] | 0.0038 |
| Cc1cc(F)c(-c2cc(C(F)(F)F)c3c(N)ncnn23)cc1C(=O)N[C@@H]1CN(C(=O)c2ccc(F)cc2F)C[C@@H]1F [Example 832, 5-[4-amino-5-(trifluoromethyl)pyrrolo[2,1-f][1,2,4]triazin-7-yl]-N-[(3R,4S)-1-(2,4-difluorobenzoyl)-4-fluoropyrrolidin-3-yl]-4-fluoro-2-methylbenzamide] | 0.012 |
| Cc1cc(F)c(-c2cc(C(F)(F)F)c3c(N)ncnn23)cc1C(=O)N[C@@H]1CN(C(=O)c2cscn2)C[C@@H]1F [Example 833, 5-[4-amino-5-(trifluoromethyl)pyrrolo[2,1-f][1,2,4]triazin-7-yl]-4-fluoro-N-[(3R,4S)-4-fluoro-1-(1,3-thiazole-4-carbonyl)pyrrolidin-3-yl]-2-methylbenzamide] | 0.0088 |
| Cc1cc(F)c(-c2cc(C(F)(F)F)c3c(N)ncnn23)cc1C(=O)N[C@@H]1CN(C(=O)c2ccncc2F)C[C@@H]1F [Example 834, 5-[4-amino-5-(trifluoromethyl)pyrrolo[2,1-f][1,2,4]triazin-7-yl]-4-fluoro-N-[(3R,4S)-4-fluoro-1-(3-fluoropyridine-4-carbonyl)pyrrolidin-3-yl]-2-methylbenzamide] | 0.01 |
| Cc1cc(F)c(-c2cc(C(F)(F)F)c3c(N)ncnn23)cc1C(=O)N[C@@H]1CN(C(=O)c2c(F)cncc2F)C[C@@H]1F [Example 835, 5-[4-amino-5-(trifluoromethyl)pyrrolo[2,1-f][1,2,4]triazin-7-yl]-N-[(3R,4S)-1-(3,5-difluoropyridine-4-carbonyl)-4-fluoropyrrolidin-3-yl]-4-fluoro-2-methylbenzamide] | 0.0041 |
| Cc1cc(F)c(-c2cc(C(F)(F)F)c3c(N)ncnn23)cc1C(=O)N[C@@H]1CN(C(=O)c2cccc(F)c2F)C[C@@H]1F [Example 836, 5-[4-amino-5-(trifluoromethyl)pyrrolo[2,1-f][1,2,4]triazin-7-yl]-N-[(3R,4S)-1-(2,3-difluorobenzoyl)-4-fluoropyrrolidin-3-yl]-4-fluoro-2-methylbenzamide] | 0.0052 |
| Cc1cc(C(=O)N2C[C@H](F)[C@H](NC(=O)c3cc(-c4cc(C(F)(F)F)c5c(N)ncnn45)c(F)cc3C)C2)ccn1 [Example 837, 5-[4-amino-5-(trifluoromethyl)pyrrolo[2,1-f][1,2,4]triazin-7-yl]-4-fluoro-N-[(3R,4S)-4-fluoro-1-(2-methylpyridine-4-carbonyl)pyrrolidin-3-yl]-2-methylbenzamide] | 0.038 |
| Cc1cc(F)c(-c2cc(C(F)(F)F)c3c(N)ncnn23)cc1C(=O)N[C@@H]1CN(C(=O)c2ccncc2Cl)C[C@@H]1F [Example 838, 5-[4-amino-5-(trifluoromethyl)pyrrolo[2,1-f][1,2,4]triazin-7-yl]-N-[(3R,4S)-1-(3-chloropyridine-4-carbonyl)-4-fluoropyrrolidin-3-yl]-4-fluoro-2-methylbenzamide] | 0.017 |
| Cc1ccnc(C(=O)N2C[C@H](F)[C@H](NC(=O)c3cc(-c4cc(C(F)(F)F)c5c(N)ncnn45)c(F)cc3C)C2)c1 [Example 839, 5-[4-amino-5-(trifluoromethyl)pyrrolo[2,1-f][1,2,4]triazin-7-yl]-4-fluoro-N-[(3R,4S)-4-fluoro-1-(4-methylpyridine-2-carbonyl)pyrrolidin-3-yl]-2-methylbenzamide] | 0.019 |
| Cc1nc(C(=O)N2C[C@H](F)[C@H](NC(=O)c3cc(-c4cc(C(F)(F)F)c5c(N)ncnn45)c(F)cc3C)C2)c(C)s1 [Example 840, 5-[4-amino-5-(trifluoromethyl)pyrrolo[2,1-f][1,2,4]triazin-7-yl]-N-[(3R,4S)-1-(2,5-dimethyl-1,3-thiazole-4-carbonyl)-4-fluoropyrrolidin-3-yl]-4-fluoro-2-methylbenzamide] | 0.077 |
| Cc1cc(F)c(-c2cc(C(F)(F)F)c3c(N)ncnn23)cc1C(=O)N[C@@H]1CN(C(=O)c2ncccc2Cl)C[C@@H]1F [Example 841, 5-[4-amino-5-(trifluoromethyl)pyrrolo[2,1-f][1,2,4]triazin-7-yl]-N-[(3R,4S)-1-(3-chloropyridine-2-carbonyl)-4-fluoropyrrolidin-3-yl]-4-fluoro-2-methylbenzamide] | 0.025 |
| Cc1cccc(C(=O)N2C[C@H](F)[C@H](NC(=O)c3cc(-c4cc(C(F)(F)F)c5c(N)ncnn45)c(F)cc3C)C2)n1 [Example 842, 5-[4-amino-5-(trifluoromethyl)pyrrolo[2,1-f][1,2,4]triazin-7-yl]-4-fluoro-N-[(3R,4S)-4-fluoro-1-(6-methylpyridine-2-carbonyl)pyrrolidin-3-yl]-2-methylbenzamide] | 0.023 |
| Cc1cc(F)c(-c2cc(C(F)(F)F)c3c(N)ncnn23)cc1C(=O)N[C@@H]1CN(C(=O)c2ccc(OC(F)(F)F)cn2)C[C@@H]1F [Example 843, 5-[4-amino-5-(trifluoromethyl)pyrrolo[2,1-f][1,2,4]triazin-7-yl]-4-fluoro-N-[(3R,4S)-4-fluoro-1-[5-(trifluoromethoxy)pyridine-2-carbonyl]pyrrolidin-3-yl]-2-methylbenzamide] | 0.357 |
| Cc1cc(F)c(-c2cc(C(F)(F)F)c3c(N)ncnn23)cc1C(=O)N[C@@H]1CN(C(=O)c2cccc(Br)n2)C[C@@H]1F [Example 844, 5-[4-amino-5-(trifluoromethyl)pyrrolo[2,1-f][1,2,4]triazin-7-yl]-N-[(3R,4S)-1-(6-bromopyridine-2-carbonyl)-4-fluoropyrrolidin-3-yl]-4-fluoro-2-methylbenzamide] | 0.024 |
| Cc1cc(F)c(-c2cc(C(F)(F)F)c3c(N)ncnn23)cc1C(=O)N[C@@H]1CN(C(=O)c2ncc(Br)cc2F)C[C@@H]1F [Example 845, 5-[4-amino-5-(trifluoromethyl)pyrrolo[2,1-f][1,2,4]triazin-7-yl]-N-[(3R,4S)-1-(5-bromo-3-fluoropyridine-2-carbonyl)-4-fluoropyrrolidin-3-yl]-4-fluoro-2-methylbenzamide] | 0.036 |
| Cc1cc(F)c(-c2cc(C(F)(F)F)c3c(N)ncnn23)cc1C(=O)N[C@@H]1CN(C(=O)c2ncccc2C(F)(F)F)C[C@@H]1F [Example 846, 5-[4-amino-5-(trifluoromethyl)pyrrolo[2,1-f][1,2,4]triazin-7-yl]-4-fluoro-N-[(3R,4S)-4-fluoro-1-[3-(trifluoromethyl)pyridine-2-carbonyl]pyrrolidin-3-yl]-2-methylbenzamide] | 0.057 |
| Cc1cc(F)c(-c2cc(C(F)(F)F)c3c(N)ncnn23)cc1C(=O)N[C@@H]1CN(C(=O)c2ccc(F)c(Br)n2)C[C@@H]1F [Example 847, 5-[4-amino-5-(trifluoromethyl)pyrrolo[2,1-f][1,2,4]triazin-7-yl]-N-[(3R,4S)-1-(6-bromo-5-fluoropyridine-2-carbonyl)-4-fluoropyrrolidin-3-yl]-4-fluoro-2-methylbenzamide] | 0.016 |
| Cc1cc(F)c(-c2cc(C(F)(F)F)c3c(N)ncnn23)cc1C(=O)N[C@@H]1CN(C(=O)c2cccc(C(F)(F)F)n2)C[C@@H]1F [Example 848, 5-[4-amino-5-(trifluoromethyl)pyrrolo[2,1-f][1,2,4]triazin-7-yl]-4-fluoro-N-[(3R,4S)-4-fluoro-1-[6-(trifluoromethyl)pyridine-2-carbonyl]pyrrolidin-3-yl]-2-methylbenzamide] | 0.272 |
| Cc1cc(F)c(-c2cc(C(F)(F)F)c3c(N)ncnn23)cc1C(=O)N[C@@H]1CN(C(=O)c2cc(Cl)ccn2)C[C@@H]1F [Example 849, 5-[4-amino-5-(trifluoromethyl)pyrrolo[2,1-f][1,2,4]triazin-7-yl]-N-[(3R,4S)-1-(4-chloropyridine-2-carbonyl)-4-fluoropyrrolidin-3-yl]-4-fluoro-2-methylbenzamide] | 0.014 |
| Cc1cc(F)c(-c2cc(C(F)(F)F)c3c(N)ncnn23)cc1C(=O)N[C@@H]1CN(C(=O)c2ncc(C(F)(F)F)cc2F)C[C@@H]1F [Example 850, 5-[4-amino-5-(trifluoromethyl)pyrrolo[2,1-f][1,2,4]triazin-7-yl]-4-fluoro-N-[(3R,4S)-4-fluoro-1-[3-fluoro-5-(trifluoromethyl)pyridine-2-carbonyl]pyrrolidin-3-yl]-2-methylbenzamide] | 0.248 |
| Cc1cc(F)c(-c2cc(C(F)(F)F)c3c(N)ncnn23)cc1C(=O)N[C@@H]1CN(C(=O)c2ccc(Cl)cn2)C[C@@H]1F [Example 851, 5-[4-amino-5-(trifluoromethyl)pyrrolo[2,1-f][1,2,4]triazin-7-yl]-N-[(3R,4S)-1-(5-chloropyridine-2-carbonyl)-4-fluoropyrrolidin-3-yl]-4-fluoro-2-methylbenzamide] | 0.015 |
